# Results taken from the supplement of paper PMC8728848.
# The other results are listed elsewhere or left out.
# B1: GH98CBM (Clostridium perfringens) (protein)
# chain: EVYALEESRDVYLSDLDWLNATHGDDTKSKIVQKNHPFTPGNNNQSTKISLKMEDGSISEFEKGLGTIAGSPSTITYDISGAGVTKFFSYLGIDRSANPINEQYAKVDKIEVVVDGKVIYSTINQFPNGLTYETPAIKVDLNIPENAKRLQLKSYAGEKTWGDEVVYADAKFTAKGDFVN
# What was measured:
# Assay in all cases: glycan array binding signal (z-score within array); higher = stronger binding
# Conditions in all cases: glycan notation: IUPAC condensed, linker removed
# [1] = molecular target: Gal(b1-4)GlcNAc(b1-3)Gal(b1-4)GlcNAc(b1-3)Gal(b1-4)GlcNAc
# How it was run: (§1)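 Columns mapping to the same glycan were averaged after glycan names were converted to IUPAC-condensed notation. The data come from 3228 arrays in the Consortium for Functional Glycomics database, limited to those with an available protein sequence. Binding is reported as a within-array Z-score averaged across arrays of one protein sequence and across linkers.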
# [2] = molecular target: Gal(b1-4)GlcNAc(b1-3)Gal(b1-4)[Fuc(a1-3)]GlcNAc(b1-3)Gal(b1-4)[Fuc(a1-3)]GlcNAc
# How it was run: as §1
# [3] = molecular target: Gal(b1-4)GlcNAc(b1-3)GalNAc
# How it was run: as §1
# [4] = molecular target: Gal(b1-4)GlcNAc(b1-3)[Gal(b1-4)GlcNAc(b1-6)]Gal(b1-4)GlcNAc
# How it was run: as §1
# [5] = molecular target: Gal(b1-4)GlcNAc(b1-3)[GlcNAc(b1-6)]Gal(b1-4)GlcNAc
# How it was run: as §1
# [6] = molecular target: Gal(b1-4)GlcNAc(b1-6)Gal(b1-4)GlcNAc
# How it was run: as §1
# [7] = molecular target: Gal(b1-4)GlcNAc(b1-6)Gal(b1-4)GlcNAc(b1-6)GalNAc
# How it was run: as §1
# [8] = molecular target: Gal(b1-4)GlcNAc(b1-6)GalNAc
# How it was run: as §1
# [9] = molecular target: Gal(b1-4)GlcNAc(b1-6)[Gal(b1-3)]GalNAc
# How it was run: as §1
# [10] = molecular target: Gal3S(b1-3)GalNAc
# How it was run: as §1
# [11] = molecular target: Gal3S(b1-3)GlcNAc
# How it was run: as §1
# [12] = molecular target: Gal3S(b1-3)[Fuc(a1-4)]GlcNAc
# How it was run: as §1
# [13] = molecular target: Gal3S(b1-4)Glc
# How it was run: as §1
# [14] = molecular target: Gal3S(b1-4)Glc6S
# How it was run: as §1
# [15] = molecular target: Gal3S(b1-4)GlcNAc
# How it was run: as §1
# [16] = molecular target: Gal3S(b1-4)GlcNAc6S
# How it was run: as §1
# [17] = molecular target: Gal3S(b1-4)[Fuc(a1-3)]Glc
# How it was run: as §1
# [18] = molecular target: Gal3S4S(b1-4)GlcNAc
# How it was run: as §1
# [19] = molecular target: Gal3S6S(b1-4)GlcNAc
# How it was run: as §1
# [20] = molecular target: Gal3S6S(b1-4)GlcNAc6S
# How it was run: as §1
# [21] = molecular target: Gal4S(b1-4)GlcNAc
# How it was run: as §1
# [22] = molecular target: Gal4S6S(b1-4)GlcNAc
# How it was run: as §1
# [23] = molecular target: Gal6S(b1-4)Glc
# How it was run: as §1
# [24] = molecular target: Gal6S(b1-4)Glc6S
# How it was run: as §1
# [25] = molecular target: Gal6S(b1-4)GlcNAc
# How it was run: as §1
# [26] = molecular target: Gal6S(b1-4)GlcNAc6S
# How it was run: as §1
# [27] = molecular target: GalNAc(a1-3)Gal
# How it was run: as §1
# [28] = molecular target: GalNAc(a1-3)GalNAc
# How it was run: as §1
# [29] = molecular target: GalNAc(b1-3)Gal
# How it was run: as §1
# [30] = molecular target: GalNAc(b1-3)Gal(a1-4)Gal(b1-4)GlcNAc
# How it was run: as §1
# [31] = molecular target: GalNAc(b1-3)GalNAc
# How it was run: as §1
# [32] = molecular target: GalNAc(b1-4)GlcNAc
# How it was run: as §1
# [33] = molecular target: Glc(a1-4)Glc
# How it was run: as §1
# [34] = molecular target: Glc(a1-6)Glc(a1-6)Glc
# How it was run: as §1
# [35] = molecular target: Glc(b1-4)Glc
# How it was run: as §1
# [36] = molecular target: Glc(b1-6)Glc
# How it was run: as §1
# [37] = molecular target: GlcA(b1-3)Gal
# How it was run: as §1
# [38] = molecular target: GlcA(b1-3)GlcNAc
# How it was run: as §1
# [39] = molecular target: GlcA(b1-6)Gal
# How it was run: as §1
# [40] = molecular target: GlcNAc(a1-3)Gal(b1-4)GlcNAc
# How it was run: as §1
# [41] = molecular target: GlcNAc(a1-6)Gal(b1-4)GlcNAc
# How it was run: as §1
# [42] = molecular target: GlcNAc(b1-2)Gal(b1-3)GalNAc
# How it was run: as §1
# [43] = molecular target: GlcNAc(b1-2)Man(a1-3)[GlcNAc(b1-2)Man(a1-6)]Man(b1-4)GlcNAc(b1-4)GlcNAc
# How it was run: as §1
# [44] = molecular target: GlcNAc(b1-3)Gal
# How it was run: as §1
# [45] = molecular target: GlcNAc(b1-3)Gal(b1-3)GalNAc
# How it was run: as §1
binder,measurement,setting,value
B1,glycan array binding signal (z-score),[1],0.082
same,glycan array binding signal (z-score),[2],-0.114
same,glycan array binding signal (z-score),[3],-0.188
same,glycan array binding signal (z-score),[4],-0.311
same,glycan array binding signal (z-score),[5],-0.196
same,glycan array binding signal (z-score),[6],-0.182
same,glycan array binding signal (z-score),[7],-0.101
same,glycan array binding signal (z-score),[8],-0.211
same,glycan array binding signal (z-score),[9],-0.24
same,glycan array binding signal (z-score),[10],-0.291
same,glycan array binding signal (z-score),[11],-0.009
same,glycan array binding signal (z-score),[12],0.013
same,glycan array binding signal (z-score),[13],-0.221
same,glycan array binding signal (z-score),[14],-0.074
same,glycan array binding signal (z-score),[15],-0.144
same,glycan array binding signal (z-score),[16],-0.143
same,glycan array binding signal (z-score),[17],-0.211
same,glycan array binding signal (z-score),[18],-0.16
same,glycan array binding signal (z-score),[19],0.137
same,glycan array binding signal (z-score),[20],-0.037
same,glycan array binding signal (z-score),[21],-0.22
same,glycan array binding signal (z-score),[22],-0.238
same,glycan array binding signal (z-score),[23],-0.098
same,glycan array binding signal (z-score),[24],-0.289
same,glycan array binding signal (z-score),[25],-0.065
same,glycan array binding signal (z-score),[26],-0.291
same,glycan array binding signal (z-score),[27],-0.092
same,glycan array binding signal (z-score),[28],-0.243
same,glycan array binding signal (z-score),[29],-0.261
same,glycan array binding signal (z-score),[30],-0.306
same,glycan array binding signal (z-score),[31],-0.337
same,glycan array binding signal (z-score),[32],-0.149
same,glycan array binding signal (z-score),[33],-0.221
same,glycan array binding signal (z-score),[34],-0.282
same,glycan array binding signal (z-score),[35],-0.19
same,glycan array binding signal (z-score),[36],-0.092
same,glycan array binding signal (z-score),[37],-0.196
same,glycan array binding signal (z-score),[38],-0.237
same,glycan array binding signal (z-score),[39],0.04
same,glycan array binding signal (z-score),[40],0.016
same,glycan array binding signal (z-score),[41],-0.276
same,glycan array binding signal (z-score),[42],-0.175
same,glycan array binding signal (z-score),[43],-0.097
same,glycan array binding signal (z-score),[44],-0.243
same,glycan array binding signal (z-score),[45],-0.125
